US20250144066A1, “Prevention and Treatment of Parasitic Infections” (priority 2017, published 2025)

Tested on: Human papillomavirus11

Structure (SMILES): COc1c(C)c2c(c(O)c1C/C=C(\C)CCC(=O)O)C(=O)OC2 [EP1601, 6-(4-hydroxy-6-methoxy-7-methyl-3-oxo-1,3-dihydroisobenzofuran-5-yl)-4-methyl-hex-4-enoic acid]
- activity against HPV 11: active
